According to patent US20240207427A1, “SELECTIVE DRUG RELEASE FROM INTERNALIZED CONJUGATES OF BIOLOGICALLY ACTIVE COMPOUNDS” (priority 2021, published 2024):

B1: cAC10-Compound 43(8) (conjugate, chains of the INN, looked up)
heavy: QIQLQQSGPEVVKPGASVKISCKASGYTFTDYYITWVKQKPGQGLEWIGWIYPGSGNTKYNEKFKGKATLTVDTSSSTAFMQLSSLTSEDTAVYFCANYGNYWFAYWGQGTQVTVSA[human IgG1 constant region left out]
light: DIVLTQSPASLAVSLGQRATISCKASQSVDFDGDSYMNWYQQKPGQPPKVLIYAASNLESGIPARFSGSGSGTDFTLNIHPVEEEDAATYYCQQSNEDPWTFGGGTKLEIKRTVAAPSVFIFPPSDEQLKSGTASVVCLLNNFYPREAKVQWKVDNALQSGNSQESVTEQDSKDSTYSLSSTLTLSKADYEKHKVYACEVTHQGLSSPVTKSFNRGEC
modifications: Compound 43 payload, DAR 8
B2: cAC10-Compound 43b(8) (conjugate, chains of the INN, looked up)
heavy: B1 heavy
light: B1 light
modifications: Compound 43b payload, DAR 8
B3: cAC10-Compound 43a(8) (conjugate, chains of the INN, looked up)
heavy: B1 heavy
light: B1 light
modifications: Compound 43a payload, DAR 8

What was measured:
Design in all cases: species or system SCID or nude mice
L428 xenograft = assay: In vivo xenograft model, L428; conditions: L428, single dose 2 or 6 mg/kg intraperitoneal, FIGS. 24A and 24B
Method: (§1) All experiments were conducted in concordance with the Animal Care and Use Committee in a facility fully accredited by the Association for Assessment and Accreditation of Laboratory Animal Care. Efficacy experiments were conducted in the L428, KMH2, Karpas/Karpas-BVR, DelBVR, and Caki-1 xenografts models. Tumor cells, as a cell suspension, were implanted sub-cutaneous in immune-compromised SCID or nude mice. Upon tumor engraftment, mice were randomized to study groups (5 mice per group) when the average tumor volume reached about 100 mm3. The ADC or controls were dosed once via intraperitoneal injection. The average number of drug-linker attached to an antibody is indicated in the parenthesis next to the ADC (also referred to herein as Drug-Antibody Ratio (DAR) number, e.g., DAR4, DAR8, etc.). Tumor volume as a function of time was determined using the formula (L×W2)/2. Animals were euthanized when tumor volumes reached 750 mm3. Mice showing durable regressions were terminated after 10-12 weeks post implant.
Animals were implanted with L428 cells. […] Animals were evaluated for tumor size and in-life signs during the course of the study.

[1] = test system: 1:1 mixture of CD30+ Karpas299 and CD30- Karpas299-BVR cells xenograft; assay: In vivo xenograft model, Karpas299/Karpas299-BVR 1:1; conditions: single dose 0.5 and 1.5 mg/kg, FIG. 26
Method: as §1
Animals were implanted with a 1:1 mixture of CD30+ Karpas299 and CD30-Karpas299-brentuximab vedotin resistant (Karpas299-BVR) cells. […] Animals were evaluated for tumor size and in-life signs during the course of the study.

[2] = test system: Del-brentuximab vedotin resistant (DELBVR) xenograft; assay: In vivo xenograft model, DELBVR; conditions: single dose 0.3 or 0.9 mg/kg, FIG. 25A-C
Method: as §1
Animals were implanted with Del-brentuximab vedotin resistant (DELBVR) cells. […] Animals were evaluated for tumor size and in-life signs during the course of the study.

Molecule | in vivo anti-tumor activity (L428 xenograft) | in vivo anti-tumor activity [1] | in vivo anti-tumor activity [2]
B1 | displayed in vivo anti-tumor activities | displayed in vivo anti-tumor activities | displayed in vivo anti-tumor activities
B2 | displayed in vivo anti-tumor activities | – | displayed in vivo anti-tumor activities
B3 | displayed in vivo anti-tumor activities | – | displayed in vivo anti-tumor activities
